Test results published in paper PMC4336329 (PLoS ONE, 2015).
Out of some 310,000 compounds screened, about 14,000 (4.5%) showed an effect of 50% or more. The effect is printed as a negative number. Some of the results follow.

Biological target: human ether-à-go-go-related gene (hERG) potassium channel (human, UniProt Q12809)
Assay: primary screen, population patch clamp on CHO cells stably expressing hERG
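Note: peak tail current of the secondary pulse compared with the same well before compound.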

Chain of human ether-à-go-go-related gene (hERG) potassium channel (Q12809 whole entry, looked up): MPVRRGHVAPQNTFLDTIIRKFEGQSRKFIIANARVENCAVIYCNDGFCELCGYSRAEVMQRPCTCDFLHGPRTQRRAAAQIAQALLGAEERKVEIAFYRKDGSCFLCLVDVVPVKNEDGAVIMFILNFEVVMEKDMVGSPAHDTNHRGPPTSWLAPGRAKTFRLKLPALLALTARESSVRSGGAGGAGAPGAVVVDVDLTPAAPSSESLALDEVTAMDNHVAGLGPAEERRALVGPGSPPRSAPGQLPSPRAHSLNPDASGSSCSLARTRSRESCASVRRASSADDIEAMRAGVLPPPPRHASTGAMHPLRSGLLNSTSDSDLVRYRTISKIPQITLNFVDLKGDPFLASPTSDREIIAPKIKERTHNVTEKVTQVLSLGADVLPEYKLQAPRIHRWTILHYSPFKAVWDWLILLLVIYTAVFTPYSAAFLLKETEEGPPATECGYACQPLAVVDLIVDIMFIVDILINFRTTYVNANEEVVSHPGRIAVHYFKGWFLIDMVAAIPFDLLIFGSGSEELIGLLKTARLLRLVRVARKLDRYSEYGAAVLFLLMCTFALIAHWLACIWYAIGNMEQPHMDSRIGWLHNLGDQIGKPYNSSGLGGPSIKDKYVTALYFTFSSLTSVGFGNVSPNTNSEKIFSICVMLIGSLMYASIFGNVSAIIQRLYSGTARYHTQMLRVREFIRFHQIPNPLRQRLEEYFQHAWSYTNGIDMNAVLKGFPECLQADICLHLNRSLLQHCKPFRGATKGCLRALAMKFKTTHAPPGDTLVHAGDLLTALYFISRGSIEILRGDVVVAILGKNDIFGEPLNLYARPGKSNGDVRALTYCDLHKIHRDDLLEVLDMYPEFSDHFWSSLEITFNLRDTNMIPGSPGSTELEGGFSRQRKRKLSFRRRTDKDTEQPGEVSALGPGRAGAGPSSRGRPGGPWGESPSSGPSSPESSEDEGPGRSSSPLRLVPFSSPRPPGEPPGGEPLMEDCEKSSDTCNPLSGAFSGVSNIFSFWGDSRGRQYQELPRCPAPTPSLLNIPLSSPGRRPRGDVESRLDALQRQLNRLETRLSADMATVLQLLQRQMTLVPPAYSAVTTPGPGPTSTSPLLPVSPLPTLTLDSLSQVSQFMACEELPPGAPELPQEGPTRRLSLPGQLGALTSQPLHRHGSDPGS

Structure (SMILES)	hERG current change (%, negative = inhibition) at 10uM [%]
CCN(CC)CCNC(=O)c1cc2c(s1)-c1ccccc1SC2	-77.8
Cc1nc(-c2ccc(C(F)(F)F)cc2)sc1C(=O)NN	-34.7
O=C(c1nnc(Cc2ccc(Cl)cc2)o1)N1CCOCC1	10.7
COc1cc(NC(=O)c2cccs2)c(C(=O)OCC(=O)NC(=O)NC(C)(C)C)cc1OC	3.92
COc1ccccc1-c1c(C)oc2c(CN3CCOCC3)c(O)ccc2c1=O	-2.69
CCCCN1C(=O)C(=O)N(CC(=O)N2CCc3ccccc32)C1=O	5.05
CC(=O)NC(c1ccc(F)cc1)c1cccnc1 (centres unmarked)	-5.47
Nc1ccc(-c2nc3c(Cl)cc(N)cc3[nH]2)cc1	20.7
COc1cccc(OC)c1NC(=O)Cn1nc(-c2ccc3c(c2)OCCO3)ccc1=O	3.82
CC(C)(C)OC(=O)N1CCC(CC2CC(c3ccncc3)=NO2)(C(=O)O)CC1 (centres unmarked)	8.83
CN(Cc1nc2ccccc2c(=O)[nH]1)C(=O)c1cccc(S(=O)(=O)N2CCCC2)c1	-18
CN(C)/C=C1\C(=O)N(c2ccc(Cl)cc2)CS1(=O)=O	0.27
Cc1cc2nc(C)n3c4ccccc4nc3n2n1	-0.0826
COc1ccc(/C(N)=N/OC(=O)c2cccc([N+](=O)[O-])c2C)cc1OC	-9.25
CCOC(=O)c1cnc(SC2CC(=O)N(c3ccc(C)cc3)C2=O)nc1N (centres unmarked)	-19.4
O=C(N/N=C\CCc1ccccc1)c1ccco1	3.8
CCNC(=O)COC(=O)/C=C/c1cccs1	31.7
CC(=O)c1c(C)n(-c2ccc(C)cc2C)c2ccc(O)cc12	12.9
CSc1ccc(CN(C)C(C)C(=O)NCc2ccccc2)cc1 (centres unmarked)	-32.8
CCS(=O)(=O)c1ccc2c(c1)N(S(=O)(=O)c1ccc(C)cc1)CC(C(=O)O)O2 (centres unmarked)	9.27
CC(C)c1ccc(Nc2nnc(SCC(=O)c3nnc(-c4ccccc4)o3)s2)cc1	22.2
CCCCCOc1ccc(C(=O)OC(C)C(=O)NCc2ccco2)cc1 (centres unmarked)	-24.8
O=C(COC(=O)CSCC(=O)N1CCCCC1)NCc1ccc(F)cc1	7.39

Structure (SMILES)	hERG current change (%, negative = inhibition) at 10uM [%]
COC(=O)c1c(C)oc(C)c1S(=O)(=O)NC(c1ccccc1)c1ccccc1	17.2
Cn1nc(C(=O)OCc2ccc(Br)cc2F)c2ccccc2c1=O	6.86
COc1ccc(-c2csc(NC(=O)CSc3nc(SC)ns3)n2)cc1	5.06
O=C(COC(=O)/C=C/c1ccc2c(c1)OCO2)Nc1ccccc1	41.3
CCOc1ccc2c(c1)C(c1ccccc1)=NNC(c1ccccc1)=N2	6.08
COCCNC(=O)C(c1ccc(OC)cc1)N(CCOC)C(=O)CCC(=O)Nc1nccs1 (centres unmarked)	5.47
CCC(=O)c1ccc(OCC(=O)N2CCc3cc(OC)c(OC)cc3C2)cc1	-33.2
C=CCc1ccc(O)c(-c2ccc(O)c(CC=C)c2)c1	-0.299
Cc1ccc([N+](=O)[O-])cc1NC(=O)c1ccc(CSc2ccccc2)cc1	7.14
CCC(=O)Nc1nc(=S)ss1	13.5
CC1CCN(c2nc3c(c(=O)n(C)c(=O)n3C)n2CCSc2ncccn2)CC1	-3.05
Cc1ccc(C(=O)N(Cc2sccc2C)C2CCS(=O)(=O)C2)cc1 (centres unmarked)	-28.2
Cc1ccc(CC(CC(=O)Nc2cccc(C(F)(F)F)c2)C(=O)O)cc1 (centres unmarked)	18
COC(=O)c1ccc(C2C(C(=O)c3cc4ccccc4o3)=C(O)C(=O)N2CCCN(C)C)cc1 (centres unmarked)	11.4
COc1ccc(-c2[nH]c(-c3ccccc3)nc2SCC(=O)NCc2ccco2)cc1OC	3.7
CNS(=O)(=O)c1ccc2nc(NC(=O)c3ccc(N4C(=O)CCC4=O)cc3)sc2c1	37.6
CCCc1ccc(OCc2ccccc2)c2c(=O)cc(C(=O)OCC)oc12	10.9
CC(C)CC(=O)Nc1ccc(F)c(Cl)c1	-19.5
COc1ccc(C2OC(=O)CC2C(=O)NCc2ccc(C)cc2)cc1OC (centres unmarked)	-16
COCCn1c(-c2ccc(C#N)cc2)nc2c1c(=O)[nH]c(=O)n2Cc1ccccc1	-33.9
Cc1cc(CSc2ccccc2)ccc1NC(=O)c1ccc(CN2CCOCC2)cc1	2.01
COc1ccccc1CNc1cc(C)ccc1C	2.75
Cc1cc(C)c(N(C(=O)CN2C(=O)c3ccccc3S2(=O)=O)C(C(=O)NCC2CCCO2)c2ccc(F)cc2)c(C)c1 (centres unmarked)	1.66

Structure (SMILES)	hERG current change (%, negative = inhibition) at 10uM [%]
Cc1ccccc1NC(=O)COC(=O)c1cccnc1	17.1
Nc1c(S(=O)(=O)c2cccs2)c2nc3ccccc3nc2n1Cc1ccccc1	-3.1
CCOC(=O)NC(=O)CSc1nnc(C2CC2)n1Cc1ccco1	14.8
OCc1c[nH]c2ccccc12	9.02
COc1cc(NS(=O)(=O)c2ccc(NC(C)=O)cc2)nc(OC)n1	5.7
O=C(NCc1ccccc1Cl)C1CCN(S(=O)(=O)c2cccs2)CC1	-63.4
COc1ccc(C(=O)N2CCN=C2SCc2cccnc2)c(OC)c1	-3.09
CC1(c2ccc3c(c2)OCO3)NC(=O)N(CC(=O)NCCC2=CCCCC2)C1=O (centres unmarked)	-6.08
N#Cc1ccsc1NC(=O)c1ccccn1	-4.67
CCOc1ccc(S(=O)(=O)N2CCCCC2)cc1NC(=O)Cc1ccccc1	-12.7
COc1ccc(CCNC(=O)CN(C)S(=O)(=O)c2cccs2)cc1OC	-1.23
Cc1nc(NCCc2ccccc2)sc1C(=O)O	28.8
COc1ccccc1NC(=O)CSc1nnc(CNC(=O)c2ccccc2F)o1	1.06
CC(C(=O)Nc1cccnc1)c1ccc([N+](=O)[O-])cc1 (centres unmarked)	-7.49
O=C(CNC(=O)c1ccccc1)OCCOc1cccc(Cl)c1	-2.54
COc1cc(NC2c3ncccc3C(=O)N2Cc2ccco2)cc(OC)c1 (centres unmarked)	-0.0378
O=C(Nc1cccc(F)c1)C1CCCN1S(=O)(=O)c1cccc2cccnc12 (centres unmarked)	-18
CC(=O)Nc1ccc(OCC(=O)NCCc2ccc(Cl)cc2)cc1	-9.6
O=C(N=Nc1c(O)[nH]c2ccc([N+](=O)[O-])cc12)c1ccccc1Cl	6.89
CCOc1cc(C2C(C(=O)O)c3cc(OCC)c(OCC)cc3C(=O)N2C)ccc1O (centres unmarked)	2.69
CCCN1CCN(C(=O)c2ccc3nc(CC)c(CC)nc3c2)CC1	1.54
O=C(NCc1ccccc1)N1CCC(c2nc3ccccc3[nH]2)CC1	-15.1
CC1CC(C)(C)N(C(=O)CN2C(=O)c3ccccc3C2=O)c2ccccc21 (centres unmarked)	4.6

Structure (SMILES)	hERG current change (%, negative = inhibition) at 10uM [%]
CC(=O)Nc1cccc(Oc2cnc3ccccc3n2)c1	-3.08
Cc1c(S(=O)(=O)N2CCCC(C)C2)c(=O)n(C)c(=O)n1C (centres unmarked)	-2.74
COc1cccc(C(=O)COc2ccc3c(C)cc(=O)oc3c2)c1	-70.8
COc1ccccc1CNC(=O)C1CCCN1S(=O)(=O)c1cccc2cccnc12 (centres unmarked)	-12.5
O=C(NCCCN1CCCC1)c1ccc2c(c1)N(Cc1ccccc1F)C(=O)c1ccccc1S2=O (centres unmarked)	-22.5
Cc1ccccc1Oc1cc(-n2ncc(Cl)c(Cl)c2=O)ncn1	6.67
COc1ccc(N2CCN(C(=O)CCc3ccc(S(=O)(=O)NCC(C)C)cc3)CC2)cc1	-57.1
CN(C)S(=O)(=O)c1cc(NC(=O)COC(=O)Cc2ccc(Cl)cc2Cl)ccc1Cl	-4.97
Oc1ccccc1CNc1ccc(Br)cn1	-22.9
Clc1ccc(OCc2cc(-c3ccccc3)no2)cc1Cl	12.9
O=C(N/N=C/c1ccc([N+](=O)[O-])cc1)c1cc(C2CC2)[nH]n1	-14.8
COc1cccc(-c2cc(C(=O)NCc3ccco3)no2)c1	6.68
Cc1ccc(-c2c3c(=O)n(C)c(=O)n(C)c3cn2N2CCOCC2)cc1	-40
COc1ccc(NC(=O)CN(c2ccc(C)cc2)S(C)(=O)=O)c(OC)c1	-10.3
Cc1ccc(S(=O)(=O)NCCNc2ccccc2[N+](=O)[O-])cc1	-16.1
CC(=O)C1=C(C)Nc2ncnn2C1c1ccc(F)cc1 (centres unmarked)	18.6
O=C(NCCCc1ccccc1)C1CC1	22.2
Cc1cc(C)n2ncc(C(=O)NCCc3ccccc3)c2n1	-13
CCOc1ccc(CCNC(=O)c2cn(C)c3ccc(S(=O)(=O)N4CCOCC4)cc3c2=O)cc1OCC	-41.7
COc1ccc(-c2c(C)n([O-])c3c([n+]2=O)CCCC3)cc1	-3.69
